The results in this text go back to the supplement of paper PMC10681739.

The full ranking holds about 2,700 sequences; the median of “arbitrary fluorescence units” is about 4,100, and the highest 2% start at about 54,000. The list shows a part of the results.

The target in the experiment is T1, ETS1 (UniProt P14921).
T1 sequence: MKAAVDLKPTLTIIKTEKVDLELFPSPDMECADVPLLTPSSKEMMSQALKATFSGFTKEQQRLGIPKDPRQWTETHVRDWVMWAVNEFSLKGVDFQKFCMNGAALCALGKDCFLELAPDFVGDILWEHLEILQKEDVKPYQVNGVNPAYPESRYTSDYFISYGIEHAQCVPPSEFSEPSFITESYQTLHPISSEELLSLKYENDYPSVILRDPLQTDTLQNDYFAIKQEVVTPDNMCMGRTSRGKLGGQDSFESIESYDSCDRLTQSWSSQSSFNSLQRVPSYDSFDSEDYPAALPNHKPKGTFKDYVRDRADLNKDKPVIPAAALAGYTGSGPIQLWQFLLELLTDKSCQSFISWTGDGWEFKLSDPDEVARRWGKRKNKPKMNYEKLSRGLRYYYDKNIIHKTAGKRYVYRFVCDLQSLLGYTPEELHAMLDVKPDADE
Description: ETS1 binding intensity (PBM fluorescence) (arbitrary fluorescence units); higher = stronger binding. To be noted: ETS1 concentration 10 nM. As for the experimental part: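 gcPBM on wild-type 36-bp genomic probes with two neighbouring ETS1 sites (4-24 bp apart). Recombinant human ETS1 (10 nM) was detected with anti-ETS1 antibody fluorescence. Values are medians over 3 replicate spots. The probes sit in constant array flanks that are not printed.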
On to GATCGTGCTTCCGCCCCACGCCGAGGAAACGCCTGC, for which the ETS1 binding intensity was 18500.

Sequence CATACTACAGCGGAAAAAAAACATCCTTTCTCTAGG came in with an ETS1 binding intensity of 309.

Take ACTACCGTTGGTTTCCGCAACTTCCTGGATTATCCT: the ETS1 binding intensity was 7390.

As for TCCTCCTCACTTCCGCCGGAGCGGAAACGGTGAGGA, the ETS1 binding intensity worked out at 31200.

As for TGCTTCTGGTGGTTCCGGCGCTTCCTCGGAGCGCGC, the ETS1 binding intensity was found to be 1600.

AGACACAGGAAGCTCCAGTGCAGAGAGGAAGTGCTA came in with an ETS1 binding intensity of 4410.

Take TTTTGACATTTCCTGCGGACTATTTCCTGTCACTAC: the ETS1 binding intensity is 21500.

Sequence GCTTGGACCGGAAGGTCTGCAGGAGGAAGGACTGCC displayed an ETS1 binding intensity of 7460.

As to AGCAGTCACTTCCCTGTCTCTGGGGGAAGTTCAGGG, the ETS1 binding intensity is 2340.

Sequence GGCCTTTGCGCCCGGAACCGGAAGCGATCGCTCGCC came in with an ETS1 binding intensity of 7280.

Consider GCACCCGGAAGCCGCTTGCGGGCTCCCGGAAGCGGC, for which the ETS1 binding intensity was 8720.

Regarding TGAGGTGGTATCCTGTGCATTGTAGGATGTTTAGCA, the ETS1 binding intensity is 2920.

Sequence GACTTCCCCACTTCCGTCGGGTTCCACCCATGCGCT came in with an ETS1 binding intensity of 11700.

In turn, CGGCTTCCGGCTATGGGTACCGCGGGCCGGAAGTGT had an ETS1 binding intensity of 32200.

Turning to CGGGAGCAGCGGAAGTCATTAACATCCGCGGTTGTG, the ETS1 binding intensity came to 12500.

Regarding CCTGACCCGGAACTCGGAGGCGTGCTTCCTCCACCC, the ETS1 binding intensity was found to be 533.

Turning to CTCCGCCTTCCGGCTCAGAATTGTGAGGAAACCCGC, the ETS1 binding intensity worked out at 14200.

AGTAGAGAGGCCGGAAGAACCATCCGCAGAGGGTCA showed an ETS1 binding intensity of 3290.

In the case of GTCGGCTTCCTGGGGAGCAGGGCTCATTTCCTAAAT, the ETS1 binding intensity worked out at 6060.

With CCGCGCTTCCTCTGCTTTCGGTTTCGCTTCCGCCTC, the ETS1 binding intensity was 9270.

On to CAACATCAAGCCGGAAGCCCAGGAAGGGGCGTTTTG, for which the ETS1 binding intensity worked out at 4180.

Take TTGTCACAGTGGTTCCGCCTTTCCGGTCCCACCCAC: the ETS1 binding intensity came out at 4730.

On to TTCTACTTCCGCTATCAGGAGATCTACTTCCGGGCC, for which the ETS1 binding intensity came to 28100.

As for GGGAGGAAGGCAGCCGTCCGCTGCCCCGGGAAGCCG, the ETS1 binding intensity came to 182.

For TGGTAGCTGCATTTCCCCAGAGGAAGTGGTGTGTGC, the ETS1 binding intensity turned out to be 451.

CCTCCACATCCTGGGCTTAACTGATCTTCCTGCCTC showed an ETS1 binding intensity of 3960.

As for AAAGCGCATTGCGGATGGCAATTCCGGTGCGTCATT, the ETS1 binding intensity came to 732.

TGAACAGGAAACCTGAAAGGACTGGCAGGAAGTCGG had an ETS1 binding intensity of 3470.

With TTGGACTTCCCCTTTCTCAAAATACAGGAAGTCTGT, the ETS1 binding intensity was determined as 5790.

In the case of TGCACCACCATCCGCCTGCTCACATCCTGCCTGCCT, the ETS1 binding intensity came out at 3530.

Regarding GAGAACTTCCGGCTGCAGTACAACCATTTCCGGGCT, the ETS1 binding intensity worked out at 68300.

ATCAATGTTGAGCGGAAACTTCCGTCAGGCTTTGAA: the ETS1 binding intensity came out at 2270.

TCAGCATAATTAGGAAACTGCTTCCTCTGGACGTGC: the ETS1 binding intensity worked out at 236.

AGCATTCCACTTCCTGTCTTGATTCCTGTATTAGAG showed an ETS1 binding intensity of 62700.

As to TGTGGCGGTTTCGGAAGCTCCTTCCTGGGGCTCCAA, the ETS1 binding intensity turned out to be 478.

CTCTTTGCTTTCCGGTATGTGGCAGGAACCTTGGAC came in with an ETS1 binding intensity of 14500.

The sequence TCCGCTCGGGCGGAACTACGTTTCCCGGCATGCACT returned an ETS1 binding intensity of 458.

On to AGGCACTTCCGTTGAGCATCTAGACGTTTCCTTGGC, for which the ETS1 binding intensity is 35300.

As for AGGTAACTGGGGAGGAAGAGGATGTTACGAAAAGCG, the ETS1 binding intensity was determined as 374.

Take GGCGCCTTCCGCAGAGGGACTGCGGCTTCCTGCGCA: the ETS1 binding intensity was determined as 3990.

GTGGAGGATGTCGGAACGTATCTAGATGGGAAGTGG showed an ETS1 binding intensity of 381.

GCACCGGAAGTGACCGCCTCGCGGCTGCTTCCTCTC gave an ETS1 binding intensity of 57700.

The sequence GTTTTCACTTCCTTTTCAGAGCTGTATCCGGGTCGC returned an ETS1 binding intensity of 12900.

As for ACACTTCCTGCAGTAGCTTTCATCACATTTCCTCTG, the ETS1 binding intensity stood at 30400.

The sequence TTACCGGAAGAAGCGAAGAGCAGCGATTTCCTTCCA displayed an ETS1 binding intensity of 7870.

The sequence CTGGGGGTCCGGATGCTTTGCGTTTCCCAGCAGTTG yielded an ETS1 binding intensity of 1230.

CGTAGGCTTTCCGCAATATCAGTGGGGAAGTTAGAC yielded an ETS1 binding intensity of 277.

Regarding GCCGCGTCTCCTTCCGCCGCCCGGAAATCAGGGCCC, the ETS1 binding intensity is 7820.

TTGTTCTTTTAAGGAAATGTCTTCCTGGCCGCCTGA returned an ETS1 binding intensity of 256.

Turning to CAACCATAGTACAGGAAGCAGGAAGCTCACTGAAGC, the ETS1 binding intensity amounted to 2990.

As to GCGCGAGGGCCGCTTCCGCTTCCGTCAGGGGAGGCC, the ETS1 binding intensity came out at 20800.

In the case of GCAGAGCATCCGCGCCCTGCGCGACTTCCTGCGCAA, the ETS1 binding intensity came to 6040.

ATGGTCAAGGGAAGTACTACCATTTCCTGTGGGTTA came in with an ETS1 binding intensity of 4990.

GCAGTGACGGGAAACCAAGAGCAGGAAAAGCAACCC came in with an ETS1 binding intensity of 389.

In turn, CACTGGAGCTGCTTCCTAGTTTCCATTTCCGGGCCG had an ETS1 binding intensity of 3840.

For GACCATTTCCTGATACTCATGACCACTTCCTCTCAT, the ETS1 binding intensity was determined as 28400.

CTCCGGGCAGGAAAGGGCGGTAGCTTCCTCCAGCAG registered an ETS1 binding intensity of 784.

The sequence CTGGGGACACAGGAAGTATAGTTTCCTGCCTTCAGA had an ETS1 binding intensity of 12500.

GGGTCGGAAACAGCCGCTCCGCGCCGCTTCCGCTGA came in with an ETS1 binding intensity of 1230.

Turning to GGTTGGGGTGGCTTCCCGGAGGAAGTGATAACTCAG, the ETS1 binding intensity turned out to be 943.

Take GGTTCAGCCGGGAAATGTGTTCAGGATGTGCCATGG: the ETS1 binding intensity was 276.

As for TGCGCCGGAAAGCGCGCCGCTCTGTTTTCCTGGCAA, the ETS1 binding intensity was 431.
